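Exposure lasted 48 hours, with cells grown in 96-well plates and compounds tested at five concentrations. GI50: concentration for 50% inhibition of growth. Definition used: TGI = concentration required for complete inhibition of growth.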
System: NCI-H322M lung
Assay: DTP human tumour cell line panel, 48 h

| SMILES | GI50 | TGI |
| --- | --- | --- |
| CN1CCN(Cc2ccc(NC(=O)c3cncc(C#Cc4cnc5ccc(OCC(F)F)nn45)c3)cc2C(F)(F)F)CC1 | 0.733 µM | 2.13 µM |
| CC1(C)CC[C@]23CC[C@]4(C)[C@H](CC[C@@H]5[C@@]6(C)CC[C@H](NCO)C(C)(C)[C@@H]6CC[C@]54C)[C@H]2[C@H]1OC3 | 10.3 µM | 22 µM |
